Laboratory results: PubChem BioAssay AID1347073 (National Center for Advancing Translational Sciences (NCATS), 2019)
The campaign covered roughly 45,000 compounds. About 200 (0.44%) were called active. About 7% were inconclusive and are not listed. The call rests on the fitted dose curve; in most records, active means well fitted activation curve with a large enough effect; inconclusive means small, poorly fitted or top-dose-only effect; inactive means no such curve, though single readings can be large or run the other way. The list shows a part of the results.

Experiment: qHTS of TDP-43 Inhibitors: NCGC Sytravon Library Screen; further: 0% is about no effect; nearly all actives have a fitted effect of over 55% in size
Conditions: yeast TDP-43 toxicity rescue, BacTiter-Glo growth, 24 h; series mostly up to 46.1 µM; growth rescue (activation): at the top concentration
How it was run: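 TDP-43-expressing yeast, pregrown in raffinose, seeded at OD600 0.02 in galactose medium with compound for 24 hr at 30 deg C. Growth read by BacTiter-Glo luminescence, so rescue of toxicity appears as activation.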

Compound	growth rescue (activation)
COc1ccc(Nc2ccc3c(c2)=NC2(CCCCC2)[N+]=3[O-])cc1	inactive: 11.9%
CCCc1cc(=O)[nH]c(SCC(=O)N2CCN(c3ccccc3)CC2)n1	inactive: 1.72%
O=C(Nc1ccccc1C(=O)Nc1ccccc1)c1ccco1	inactive: 12.2%
CC(C)c1ccccc1NC(=O)Nc1nc(C(N)Cc2ccc(C(F)(F)F)cc2)cs1 (centres undefined)	inactive: 11.3%
CC1=NN(c2ccccc2)C(=O)/C1=C\C=C1/N(C)c2ccccc2C1(C)C	inactive: -2.73%
Nc1ncnc2nc(SCC(=O)Nc3ccccc3F)[nH]c12	inactive: 17%
O=C(CNS(=O)(=O)c1ccc(Cl)cc1)OCC(=O)N1CCCc2ccccc21	inactive: 15.5%
Cc1cc(Nc2ccccc2)n(CCOC(=O)COc2ccccc2)n1	inactive: -12.1%
CCc1ccc(CN(C)C(=O)CCc2nnc(Cc3cccc(C)c3)o2)nc1	inactive: 8.65%
O=C(N/N=C/c1ccccn1)NC12CC3CC(CC(C3)C1)C2	inactive: 12.6%
CN(C)S(=O)(=O)c1cccc(NC(=O)CN2C(=O)C3C4C=CC(C4)C3C2=O)c1 (centres undefined)	inactive: 2.88%
Fc1ccc(N2Cc3ccsc3C=N2)cc1	inactive: 6.68%
CC12CCC(=O)N1C(C(=O)OCC(=O)Nc1cc(S(=O)(=O)N3CCCCC3)ccc1Cl)CS2 (centres undefined)	inactive: 25.6%
Cc1ccc2c(c1)sc1nc(=O)ccn12	inactive: 4.79%
COc1ccc(S(=O)(=O)N2CCN(c3cnccn3)CC2)cc1	inactive: 0.731%
CCNc1c(NS(=O)(=O)c2ccc(C3CCCCC3)cc2)c(=O)oc2ccccc12	inactive: -16.6%
Cc1ccc(S(=O)(=O)Oc2cccc(/C=N/Nc3ccc(C(=O)O)cc3)c2)cc1	inactive: 4.35%
COc1ccc(S(=O)(=O)N2CCCC2)cc1C(=O)N1CCCCC1	inactive: -0.208%
CCC(=O)Nc1nc(-c2ccc3c(c2)CC(C)N3S(C)(=O)=O)cs1 (centres undefined)	inactive: 16.4%
CCc1ccccc1NC(=O)CSc1n[nH]c(-c2cccnc2)n1	inactive: 11.6%
CCN(CC)CCN1C(=O)C(=O)/C(=C(/O)c2ccccc2)C1c1ccccc1F (centres undefined)	inactive: -1.63%
CC1(C)OC(=O)C(=NNc2ccccc2)C(=O)O1	inactive: -23.2%
O=C(NC1CCCC1)c1cc(-c2ccc(Cl)cc2Cl)on1	inactive: 20.7%

Compound	growth rescue (activation)
CC(OC(=O)CCCC(=O)Nc1ccc(F)cc1)C(=O)c1ccccc1 (centres undefined)	inactive: 2.46%
CC(C)CCNC(=O)c1cc2c(s1)-c1ccccc1S(=O)(=O)C2	inactive: 5.64%
O=C1COc2ccc(C(=O)COC(=O)C3CC(O)CN3S(=O)(=O)c3ccc(Cl)cc3)cc2N1 (centres undefined)	inactive: 17.1%
Nc1c(Cl)ncnc1N1CCCC1	inactive: 9.8%
CCn1c(SCC(=O)NC(C)C)nnc1-c1cccs1	inactive: -2.04%
Cc1cc(C)nc(Nc2ccc(Br)cc2C(=O)O)n1	inactive: -2.17%
Cc1cc(/C=C(\C#N)C(=O)NCc2ccccc2)cc(C)c1O	inactive: 4.18%
Cc1cccc(/C=N\Nc2nnc(-c3ccccc3)c(=O)[nH]2)c1	inactive: 17.7%
O=C(NCc1ccncc1)c1ccc2nc(Cc3ccccc3F)oc2c1	inactive: 4.52%
Cc1ccccc1N1CCN(Cc2nc(Cc3ccccc3F)no2)CC1	inactive: 30.1%
O=C(O)c1cccc(-n2c(/C=C/c3ccccc3)nc3ccccc3c2=O)c1	inactive: -17.3%
Cc1ccc(NC2c3ccccc3C(=O)N2c2cccnc2)cc1 (centres undefined)	inactive: 33.8%
CCN(CC)C(=S)NC(=O)c1cccnc1	inactive: -7.55%
CCOc1ccccc1NC(=O)CSC1=NN2CCCC(=O)N=C2S1	inactive: 16.2%
COc1ccccc1N1CCN(C2CCCN(C(=O)c3ccoc3C)C2)CC1 (centres undefined)	inactive: -13.1%
Cc1ccc(OCCN2C(=O)S/C(=C\c3ccc(C)o3)C2=O)cc1	inactive: -5.35%
COc1cccc(-c2noc(Cn3nc(C(=O)O)c4ccccc4c3=O)n2)c1	inactive: 5.37%
CNC(=O)/C(C#N)=C1/SC(Cc2ccc(F)cc2)C(=O)N1c1ccccc1 (centres undefined)	inactive: 5.62%
O=C(NNC(=O)C1CCN(c2ncccn2)CC1)c1ccncc1	inactive: -2.84%
COc1ccc(NC(=O)c2cc(C3CCCCN3C(=O)c3cc(C(C)(C)C)nn3C)on2)c(C)c1 (centres undefined)	inactive: 13.3%
Cc1cccc2sc(NC(=O)C3CCN(C(=O)c4ccco4)CC3)nc12	inactive: 26.2%
Cc1nn(-c2ccccc2)c(Cl)c1/C=N/N1CCN(c2ccccn2)CC1	inactive: 5.39%
O=C(O)/C(=C\c1cccs1)c1ccccc1	inactive: 11.5%

Compound	growth rescue (activation)
CCc1ccc(N(C(=O)Cn2nnc(-c3ccccc3)n2)C(C(=O)NC2CCCCC2)c2ccccn2)cc1 (centres undefined)	inactive: -3.69%
Cc1ccccc1NC(=O)c1cccc(S(C)(=O)=O)c1	inactive: 7.8%
Cc1ccc(N(Cc2ccc(C(=O)Nc3c(C)n(C)n(-c4ccccc4)c3=O)cc2)S(C)(=O)=O)cc1C	inactive: -1.91%
Cc1cccc(NS(=O)(=O)c2cc(Cl)ccc2Cl)n1	inactive: 3.08%
CC(=O)c1cccc(NC(=O)Cc2coc3cc4c(cc23)CCC4)c1	inactive: -19.6%
CSCCC(NC(=O)c1occc1C)C(=O)O (centres undefined)	inactive: -13.6%
O=C(NC(=S)NCCO)c1cn(-c2ccccc2)nc1-c1ccccc1	inactive: 4.45%
COc1ccc2cc(C(=O)C3CCCN(C(=O)c4csnn4)C3)ccc2c1 (centres undefined)	inactive: 21.8%
O=C(Nc1ccc(C(F)(F)F)cc1)c1ccc2nc[nH]c2c1	inactive: 7.64%
COc1ccc(-c2c(-c3ccc(OCC(=O)NN)cc3O)n[nH]c2C)cc1OC	inactive: 16.5%
CCOc1ccc(Cl)cc1-c1cc(C(=O)Nc2ccc(OC)cc2OC)[nH]n1	inactive: 15.9%
CC(C)CC(=O)NC(c1cccs1)c1ccc2cccnc2c1O (centres undefined)	inactive: 20.4%
Cc1nn(CCCC(=O)Nc2cccnc2)c(C)c1[N+](=O)[O-]	inactive: 10.5%
CC(C)n1nc(C(=O)Nc2nc3ccccc3[nH]2)c2ccccc2c1=O	inactive: 16.4%
CCCNC(=O)c1cc(C2CCCCN2C(=O)CCc2ccccc2)on1 (centres undefined)	inactive: 10.9%
Cc1ccc(NC(=O)CN2C(=O)C3CCCCN3C(=O)c3ccccc32)cc1 (centres undefined)	inactive: 7.02%
COC(=O)C(Cc1ccccc1)NC(=O)CCNC(=O)c1ccc(Br)cc1 (centres undefined)	inactive: -1.27%
Cc1ccsc1C(=O)N1CCCC1(C)C(=O)NCC(C)C (centres undefined)	inactive: 5.66%
COc1ccc([N+](=O)[O-])cc1N(CC(O)CN1C(=O)NC(C)(C)C1=O)S(=O)(=O)c1ccccc1 (centres undefined)	inactive: 2.17%
COCCNC(=O)C1CCCN(Cc2cccc(C(F)(F)F)c2)CC1 (centres undefined)	inactive: 7.19%
CCCOCc1ccc(O)c2ncccc12	inactive: 0.242%
O=C(COC(=O)C1CCN(S(=O)(=O)c2cccs2)CC1)NCc1ccccc1	inactive: -0.0251%
COc1ccc(Cn2c(O)c(C=Nc3ccc(OC)cc3)c3ccccc3c2=O)cc1	inactive: 12.6%
